According to patent US20260016473A1 (priority 2022, published 2026):

These compounds were tested against T1, Trimeric SARS-CoV-2 Spike Protein, Full-length (Severe acute respiratory syndrome coronavirus 2, UniProt P0DTC2). Settings: not given.
Assay type: biochemical
In the case of `CCC(C)c1nc2c(CCCNC(=N)N)[nH]c(-c3c[nH]c4ccccc34)cn-2c1=O` (stereo not drawn) [Cypridina Luciferin], the “dependence of luminescence intensity on spike protein concentration” value is reported as “depends on the concentration of the virus spike protein”.

These compounds were tested against T1, Trimeric SARS-CoV-2 Spike Protein, Full-length. Settings: n=3.
Assay type: biochemical
In the case of `O=c1c(Cc2ccccc2)nc2c[nH]c(-c3c[nH]c4ccccc34)cn1-2` [CLA1, 2-benzyl-6-(1H-indol-3-yl)imidazo[1,2-a]pyrazin-3(7H)-one], the S/N ratio is reported as 6.63. `Cc1nc2c[nH]c(-c3c[nH]c4ccccc34)cn-2c1=O` [CLA2, 6-(1H-indol-3-yl)-2-methylimidazo[1,2-a]pyrazin-3(7H)-one] gave a S/N ratio of 5.81. `CCN(CC)c1ccc(-c2cn3c(=O)c(Cc4ccccc4)nc-3c[nH]2)cc1` [CLA3, 2-benzyl-6-(4-(diethylamino)phenyl)imidazo[1,2-a]pyrazin-3(7H)-one] was tested, and the S/N ratio was 6.77. With `CCN(CC)c1ccc(-c2cn3c(=O)c(C)nc-3c[nH]2)cc1` [CLA4, 6-(4-(diethylamino)phenyl)-2-methylimidazo[1,2-a]pyrazin-3(7H)-one] the S/N ratio was 6.87. `CN(C)c1ccc(-c2cn3c(=O)c(Cc4ccccc4)nc-3c[nH]2)cc1` [CLA7, 2-benzyl-6-(4-(dimethylamino)phenyl)imidazo[1,2-a]pyrazin-3(7H)-one] showed a S/N ratio of 5.15. Compound `Cc1nc2c[nH]c(-c3ccc(N(C)C)cc3)cn-2c1=O` [CLA8, 6-(4-(dimethylamino)phenyl)-2-methylimidazo[1,2-a]pyrazin-3(7H)-one] has a S/N ratio of 4.04. Compound `O=c1c(Cc2ccccc2)nc2c[nH]c(-c3c[nH]c4ncccc34)cn1-2` [CLA9, 2-benzyl-6-(1H-pyrrolo[2,3-b]pyridin-3-yl)imidazo[1,2-a]pyrazin-3(7H)-one] has a S/N ratio of 4.05. In the case of `O=c1c(Cc2ccccc2)nc2c[nH]c(-c3ccc(N4CCCC4)cc3)cn1-2` [CLA10, 2-benzyl-6-(4-(pyrrolidin-1-yl)phenyl)imidazo[1,2-a]pyrazin-3(7H)-one], the S/N ratio is reported as 6.76. `CCN(CC)c1ccc(-c2cn3c(=O)c(Cc4ccccc4)nc-3c(CCCNC(=N)N)[nH]2)cc1` [CLA12, 1-(3-(2-benzyl-6-(4-(diethylamino)phenyl)-3-oxo-3,7-dihydroimidazo[1,2-a]pyrazin-8-yl)propyl)guanidine] gave a S/N ratio of 6.33. `CCN(CC)c1ccc(-c2cn3c(=O)c(C)nc-3c(CCCNC(=N)N)[nH]2)cc1` [CLA13, 1-(3-(6-(4-(diethylamino)phenyl)-2-methyl-3-oxo-3,7-dihydroimidazo[1,2-a]pyrazin-8-yl)propyl)guanidine] showed a S/N ratio of 5.12. For `CCN(CC)c1ccc(-c2cn3c(=O)c(Cc4ccc(O)cc4)nc-3c(CCCNC(=N)N)[nH]2)cc1` [CLA14, 1-(3-(6-(4-(diethylamino)phenyl)-2-(4-hydroxybenzyl)-3-oxo-3,7-dihydroimidazo[1,2-a]pyrazin-8-yl)propyl)guanidine], the S/N ratio was 8.22. `N=C(N)NCCCc1[nH]c(-c2c[nH]c3ccccc23)cn2c(=O)c(Cc3ccc(O)cc3)nc1-2` [CLA15, 1-(3-(2-(4-hydroxybenzyl)-6-(1H-indol-3-yl)-3-oxo-3,7-dihydroimidazo[1,2-a]pyrazin-8-yl)propyl)guanidine] showed a S/N ratio of 15.9. For `O=c1c(Cc2ccccc2)nc2c(CCc3ccncc3)[nH]c(-c3ccc(N(c4ccccc4)c4ccccc4)cc3)cn1-2` [CLA17, 2-benzyl-6-(4-(diphenylamino)phenyl)-8-(2-(pyridin-4-yl)ethyl)imidazo[1,2-a]pyrazin-3(7H)-one], the S/N ratio was 1.95. For `CCN(CC)c1ccc(-c2cn3c(=O)c(Cc4ccccc4)nc-3c(CCc3ccncc3)[nH]2)cc1` [CLA18, 2-benzyl-6-(4-(diethylamino)phenyl)-8-(2-(pyridin-4-yl)ethyl)imidazo[1,2-a]pyrazin-3(7H)-one], the S/N ratio was 4.46. `CCC(C)c1nc2c(CCCNC(=N)N)[nH]c(-c3ccc(N(CC)CC)cc3)cn-2c1=O` (stereo not drawn) [CLA20, 1-(3-(2-(sec-butyl)-6-(4-(diethylamino)phenyl)-3-oxo-3,7-dihydroimidazo[1,2-a]pyrazin-8-yl)propyl)guanidine] showed a S/N ratio of 10.6. In the case of `CCC(C)c1nc2c[nH]c(-c3ccc(N(CC)CC)cc3)cn-2c1=O` (stereo not drawn) [CLA21, 2-(sec-butyl)-6-(4-(diethylamino)phenyl)imidazo[1,2-a]pyrazin-3(7H)-one], the S/N ratio is reported as 7.06.

Same assay, conditions: pH 7.4
`CCC(C)c1nc2c(CCCNC(=N)N)[nH]c(-c3c[nH]c4ccccc34)cn-2c1=O` (stereo not drawn) [Cypridina Luciferin] gave a S/N ratio of 28.1.
